{"source": "the supplement of paper PMC8183993", "note": "Several values for one entry are separate records, joined by “and”; a condition that tells them apart may be missing. Identical values can stand only once. Counter-ions that a name gives are not always drawn. ± gives the standard deviation of the averaged measurements. In all, about 3,100 compounds were measured (“mean cytoplasmic OPP incorporation (global translation) relative to DMSO”: median about 100, lowest 2% from about 56 on). The list shows a part of the results.", "data": [{"system": "U2OS", "test": "mean cytoplasmic OPP incorporation (global translation) relative to DMSO (% of DMSO); higher = more protein synthesis", "details": "10 µM; 24 h", "protocol": "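Primary image-based screen in U2OS cells: compounds at 10 uM for 24 h, then a 1 h o-propargyl-puromycin (OPP) pulse, click labelling, and high-throughput microscopy. Mean cytoplasmic OPP intensity and nuclei count were normalised to DMSO wells within each plate (DMSO = 100) and averaged over triplicate plates.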", "values": [{"compound": "Cc1ccc([N+](=O)[O-])cc1S(=O)(=O)N(C)C", "mean cytoplasmic OPP incorporation": 94.1}, {"compound": "Cc1c(O)c(=O)ccn1C", "note": "[Deferiprone]", "mean cytoplasmic OPP incorporation": 101}, {"compound": "O=S(=O)(O)c1cc(O)ccc1O", "note": "[Ethamsylate]", "mean cytoplasmic OPP incorporation": 99}, {"compound": "CC(=O)O[C@]1(C(C)=O)CC[C@H]2[C@@H]3C[C@H](C)C4=CC(=O)CC[C@]4(C)[C@H]3CC[C@@]21C", "note": "[Medroxyprogesterone acetate]", "mean cytoplasmic OPP incorporation": 98.4}, {"compound": "CC(C)NCC(O)c1ccc2ccccc2c1", "note": "(centres undefined) [Pronethalol hydrochloride]", "mean cytoplasmic OPP incorporation": "99.3 ± 1.2"}, {"compound": "CCCc1c(OCC(O)COc2ccc3c(=O)cc(C(=O)O)oc3c2CCC)ccc(C(C)=O)c1O", "note": "(centres undefined)", "mean cytoplasmic OPP incorporation": 100}, {"compound": "COc1cc2c(Oc3ccc4[nH]c(C)cc4c3F)ncnc2cc1OCCCN1CCCC1", "note": "[Cediranib (AZD2171)]", "mean cytoplasmic OPP incorporation": 98.1}, {"compound": "CNc1cc(OC)c(C(=O)NC2CCN(Cc3ccccc3)C2C)cc1Cl", "note": "(centres undefined) [Nemonapride]", "mean cytoplasmic OPP incorporation": 99.3}, {"compound": "CN(C)c1nc(N(C)C)nc(N(C)C)n1", "note": "[Altretamine]", "mean cytoplasmic OPP incorporation": 98.8}, {"compound": "N[C@H](C(=O)O)[C@H](O)c1ccc(O)c(O)c1", "note": "[Droxidopa (L-DOPS)]", "mean cytoplasmic OPP incorporation": 99.2}, {"compound": "Nc1nc2n[nH]nc2c(=O)[nH]1", "note": "[Azaguanine-8]", "mean cytoplasmic OPP incorporation": 60.2}, {"compound": "COc1ccccc1OCC(O)CN1CCN(CC(=O)Nc2c(C)cccc2C)CC1", "note": "(centres undefined) [Ranolazine]", "mean cytoplasmic OPP incorporation": 104}, {"compound": "O=[N+]([O-])c1cccc2cn[nH]c12", "note": "[7-Nitroindazole]", "mean cytoplasmic OPP incorporation": 99.4}, {"compound": "COc1cc([C@@H]2c3cc4c(cc3[C@@H](O[C@@H]3O[C@@H]5CO[C@@H](C)O[C@H]5[C@H](O)[C@H]3O)[C@H]3COC(=O)[C@H]23)OCO4)cc(OC)c1O", "note": "[Etoposide (VP-16)]", "mean cytoplasmic OPP incorporation": 84.2}, {"compound": "COc1cc([C@@H]2c3cc4c(cc3[C@@H](O[C@@H]3O[C@@H]5CO[C@@H](C)O[C@H]5[C@H](O)[C@H]3O)[C@H]3COC(=O)[C@H]23)OCO4)cc(OC)c1O", "note": "[Etoposide]", "mean cytoplasmic OPP incorporation": "87 ± 14"}, {"compound": "CCCNCC(O)COc1ccccc1C(=O)CCc1ccccc1", "note": "(centres undefined) [Propafenone]", "mean cytoplasmic OPP incorporation": 106}, {"compound": "CCCNCC(O)COc1ccccc1C(=O)CCc1ccccc1", "note": "(centres undefined) [Propafenone hydrochloride]", "mean cytoplasmic OPP incorporation": 104}, {"compound": "NC(=O)C(c1ccccc1)(c1ccccc1)[C@@H]1CCN(CCc2ccc3c(c2)CCO3)C1", "note": "[Darifenacin hydrobromide]", "mean cytoplasmic OPP incorporation": 107}, {"compound": "O=C1c2ccc(Nc3ccc(F)cc3F)cc2CCc2ccc(OC[C@H](O)CO)cc21", "note": "[Skepinone-L]", "mean cytoplasmic OPP incorporation": 101}, {"compound": "CCn1cc(-c2cccc(C(F)(F)F)c2)c2sc(C(=N)NC3CCS(=O)(=O)CC3)cc2c1=O", "mean cytoplasmic OPP incorporation": 101}, {"compound": "C[C@H]1C[C@@H]2[C@H]([C@@H](O)C[C@@]3(C)[C@H]2CC[C@]3(O)C(=O)CO)[C@@]2(C)C=CC(=O)C=C12", "note": "[Methylprednisolone]", "mean cytoplasmic OPP incorporation": 115}, {"compound": "C[C@H]1C[C@@H]2[C@H]([C@@H](O)C[C@@]3(C)[C@H]2CC[C@]3(O)C(=O)CO)[C@@]2(C)C=CC(=O)C=C12", "note": "[Methylprednisolone, 6-alpha]", "mean cytoplasmic OPP incorporation": 104}, {"compound": "O=C(NCCO)c1cccc(-c2cc(Nc3ccc(OC(F)(F)F)cc3)ncn2)c1", "mean cytoplasmic OPP incorporation": 97.8}, {"compound": "COCC[n+]1c2c(n(Cc3cnccn3)c1C)C(=O)c1ccccc1C2=O", "mean cytoplasmic OPP incorporation": 35}, {"compound": "CCN(CC)CCc1nc(-c2ccccc2)no1", "note": "[Oxalamine citrate salt]", "mean cytoplasmic OPP incorporation": 104}, {"compound": "CNCC(O)c1ccc(OC(=O)C(C)(C)C)c(OC(=O)C(C)(C)C)c1", "note": "(centres undefined) [Dipivefrin hydrochloride]", "mean cytoplasmic OPP incorporation": 98.9}, {"compound": "CC(C)NCC(O)c1ccc(O)c(O)c1", "note": "(single isomer, unassigned; (+)) [(+)-Isoproterenol (+)-bitartrate salt]", "mean cytoplasmic OPP incorporation": 91.3}, {"compound": "COc1ccc([C@]2(C#N)CC[C@@H](C(=O)O)CC2)cc1OC1CCCC1", "mean cytoplasmic OPP incorporation": 104}, {"compound": "O=S(=O)(O)NC1CCCCC1", "note": "[Cyclamic  acid]", "mean cytoplasmic OPP incorporation": 106}, {"compound": "CC(C)NC[C@@H](O)COc1cccc2ccccc12", "note": "[(R)-Propranolol hydrochloride]", "mean cytoplasmic OPP incorporation": 112}, {"compound": "CC(C)NC[C@@H](O)COc1cccc2ccccc12", "note": "[(R)-(+)-Propranolol hydrochloride]", "mean cytoplasmic OPP incorporation": 103}, {"compound": "COc1cc2c(cc1C(F)(F)F)N(C(=O)Nc1cc(F)cc(-c3cccnc3)c1)CC2", "mean cytoplasmic OPP incorporation": 121}, {"compound": "CCC(C)N(C)C(=O)c1cc2ccccc2c(-c2ccccc2Cl)n1", "note": "(centres undefined)", "mean cytoplasmic OPP incorporation": 108}, {"compound": "Nc1nc2ccc(Cl)cc2c2nc(-c3ccco3)nn12", "mean cytoplasmic OPP incorporation": 97.9}, {"compound": "CC(NCCC(c1ccccc1)c1ccccc1)c1ccccc1", "note": "(centres undefined) [Fendiline hydrochloride]", "mean cytoplasmic OPP incorporation": 112}, {"compound": "Cc1cc2c(F)c(Oc3ncnn4cc(OC[C@@H](C)OC(=O)[C@H](C)N)c(C)c34)ccc2[nH]1", "mean cytoplasmic OPP incorporation": "85.769 ± 0.062"}, {"compound": "O=c1[nH]c(=O)n(C2CCCO2)cc1F", "note": "(centres undefined) [Ftorafur]", "mean cytoplasmic OPP incorporation": 102}, {"compound": "CCOC(=O)Nc1cc(-c2ccc(C)c(NS(C)(=O)=O)c2)nn2c(C)nnc12", "note": "[Bromosporine]", "mean cytoplasmic OPP incorporation": 92.1}, {"compound": "Cc1c(N(C)CS(=O)(=O)O)c(=O)n(-c2ccccc2)n1C", "note": "[Dipyrone]", "mean cytoplasmic OPP incorporation": 107}, {"compound": "C[C@@H]1CCN(C(=O)CC#N)C[C@@H]1N(C)c1ncnc2[nH]ccc12", "mean cytoplasmic OPP incorporation": "98.7 and 97.2"}, {"compound": "NNc1nncc2ccccc12", "note": "[Hydralazine hydrochloride]", "mean cytoplasmic OPP incorporation": 100}, {"compound": "NNc1nncc2ccccc12", "note": "[Hydralazine HCl]", "mean cytoplasmic OPP incorporation": 99.8}, {"compound": "CC(=O)OCC(CCn1cnc2cnc(N)nc21)COC(C)=O", "note": "[Famciclovir]", "mean cytoplasmic OPP incorporation": 103}, {"compound": "COc1ccc([C@@H]2CC(=O)c3c(O)cc(O[C@@H]4O[C@H](CO)[C@@H](O)[C@H](O)[C@H]4O[C@@H]4O[C@@H](C)[C@H](O)[C@@H](O)[C@H]4O)cc3O2)cc1O", "note": "[Neohesperidin]", "mean cytoplasmic OPP incorporation": 111}, {"compound": "O=C(/C=C/c1ccc(O)c(O)c1)OCCc1ccccc1", "note": "[Caffeic acid phenethyl ester]", "mean cytoplasmic OPP incorporation": 81.5}, {"compound": "C=CC(=O)Nc1cccc(Oc2nc(Nc3ccc(N4CCN(C)CC4)cc3OC)ncc2Cl)c1", "mean cytoplasmic OPP incorporation": 107}, {"compound": "CN1CCN(c2c(F)cc3c(=O)c(C(=O)O)cn(CCF)c3c2F)CC1", "note": "[Fleroxacin]", "mean cytoplasmic OPP incorporation": 98.9}, {"compound": "C[N+](C)(C)CC[N+]1(C)Cc2c(Cl)c(Cl)c(Cl)c(Cl)c2C1", "note": "[Chlorisondamine diiodide]", "mean cytoplasmic OPP incorporation": 88.7}, {"compound": "C[C@H](CCC(=O)O)[C@H]1CC[C@H]2[C@@H]3[C@H](O)C[C@@H]4C[C@H](O)CC[C@]4(C)[C@H]3CC[C@]12C", "note": "[Chenodiol]", "mean cytoplasmic OPP incorporation": 102}]}]}
